According to the supplement of paper PMC12217912:
The list shows a part of the results. The full chains were built here from the parent and the listed change. Values near 0.05 are background.

B1: TEV protease; numbered along this chain (parent)
chain: MGESLFKGPRDYNPISSSICHLTNESDGHTTSLYGIGFGPFIITNKHLFRRNNGTLVVQSLHGVFKVKDTTTLQQHLVDGRDMIIIRMPKDFPPFPQKLKFREPQREERICLVTTNFQTKSMSSMVSDTSCTFPSGDGIFWKHWIQTKDGQCGSPLVSTRDGFIVGIHSASNFTNTNNYFTSVPKNFMELLTNQEAQQWVSGWRLNADSVLWGGHKVFMVKPEEPFQPVKEATQL

Variants of: B1
Assay: raw area under fraction-flipped curve 0-4 h after induction (AUC4h, not background-subtracted), DNA-recorder readout of cleavage of the substrate (dimensionless); higher = more cleavage of the substrate by the protease variant
Conditions: temperature: 34 °C; time window: 0-4 h after rhamnose induction
Procedure: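 In vivo DNA recorder in E. coli TOP10(DE3) ΔrhaA at 34 °C. Each TEVp single-site mutant (parent TEVp 0) is paired with a single-site variant of the 7-mer TEVs (canonical ENLYFQ|S). The substrate sits between flexible linkers in a Bxb1-sfGFP-TEVs-SsrA fusion, so cleavage stabilises Bxb1 and speeds flipping of a recombination array, read by NGS. The value is the raw area under the fraction-flipped curve over 0-4 h after rhamnose induction (AUC4h), with ≥20 reads per time point. It is not background-subtracted; inactive controls average about 0.047.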
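Note: Bxb1 expression induced with 0.2% (w/v) L-rhamnose at OD600 near 0.5, cultures sampled hourly, flipped fraction per protease–substrate barcode pair counted by paired-end Illumina sequencing.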

Variant | area with substrate ENLYFQA | area with substrate ENLYFQC | area with substrate ENLYFQF | area with substrate ENLYFQG | area with substrate ENLYFQH | area with substrate ENLYFQI | area with substrate ENLYFQK | area with substrate ENLYFQL | area with substrate ENLYFQM | area with substrate ENLYFQN | area with substrate ENLYFQQ | area with substrate ENLYFQR | area with substrate ENLYFQS | area with substrate ENLYFQT | area with substrate ENLYFQV | area with substrate ENLYFQW | area with substrate ENLYFQY | area with substrate ENLYFQD | area with substrate ENLYFQE | area with substrate ENLYFQP
I42Y | 0.0541 | 0.0548 | 0.0475 | 0.0581 | 0.0477 | 0.0256 | 0.0485 | 0.0428 | 0.0487 | 0.0465 | 0.0438 | 0.0451 | 0.0499 | 0.0453 | 0.0446 | 0.0448 | 0.036 |  |  | 
T44D | 0.0391 | 0.0455 |  | 0.0289 | 0.0342 | 0.0494 | 0.0381 | 0.0479 | 0.0503 | 0.0391 | 0.0409 | 0.0405 | 0.0439 | 0.0513 | 0.0284 | 0.0395 |  | 0.0341 | 0.0446 | 0.0319
T44K | 0.0588 | 0.0392 |  | 0.0481 |  |  |  |  | 0.0383 | 0.0458 |  |  | 0.0467 | 0.0476 |  | 0.0235 | 0.0413 | 0.0523 |  | 0.0593
N45H | 0.0503 | 0.0596 |  | 0.0613 | 0.0593 | 0.0536 | 0.0576 | 0.0582 | 0.0541 | 0.0614 |  | 0.064 | 0.0595 | 0.0581 | 0.0454 | 0.0599 | 0.05 |  | 0.0702 | 0.0884
N45I | 0.0516 | 0.059 | 0.0482 | 0.0553 | 0.0569 | 0.053 |  | 0.0594 | 0.0454 | 0.0537 | 0.051 | 0.0604 | 0.0569 | 0.0572 |  | 0.0546 | 0.0266 | 0.034 | 0.0585 | 0.0492
N45V | 0.101 | 0.0647 | 0.0329 | 0.0686 | 0.0729 |  | 0.0628 | 0.051 | 0.0746 | 0.0665 | 0.0642 | 0.0621 | 0.0739 | 0.0567 | 0.0626 | 0.0544 | 0.0604 | 0.0626 |  | 0.0554
K46P | 0.0406 |  | 0.0576 |  | 0.0154 | 0.0502 |  | 0.0595 | 0.0451 | 0.0645 |  | 0.0536 | 0.0653 | 0.0587 | 0.0501 | 0.0557 | 0.0483 |  | 0.0646 | 0.0584
H47D | 0.0799 | 0.0609 | 0.0451 |  | 0.0534 |  | 0.0602 | 0.0535 |  | 0.0523 |  | 0.0484 | 0.0601 | 0.0472 | 0.0498 |  | 0.04 | 0.0598 | 0.0517 | 
H47F | 0.0563 | 0.0549 | 0.0533 | 0.0607 | 0.0912 | 0.0553 |  | 0.0604 | 0.0602 | 0.0575 | 0.0752 | 0.0622 | 0.059 | 0.0672 | 0.0509 | 0.0576 | 0.0519 |  | 0.0445 | 0.0287
H47K | 0.0587 | 0.049 | 0.0441 | 0.0628 | 0.0691 | 0.0603 | 0.0584 | 0.0636 | 0.056 | 0.0606 |  | 0.0601 | 0.0635 | 0.0699 | 0.0508 | 0.0621 |  | 0.0782 |  | 0.0573
H47N | 0.0601 | 0.0619 |  | 0.0499 | 0.032 | 0.0532 | 0.0461 | 0.0529 | 0.0472 | 0.0621 |  | 0.0664 | 0.0605 | 0.0535 | 0.0565 | 0.0612 |  | 0.0641 |  | 
H47Y | 0.0495 | 0.0568 |  | 0.0563 | 0.0557 | 0.0559 | 0.0565 | 0.0438 | 0.0627 | 0.0573 |  | 0.0586 | 0.058 | 0.0527 |  | 0.0664 |  | 0.0622 | 0.0452 | 0.0547
F49G | 0.049 | 0.0604 | 0.0555 | 0.0542 | 0.0595 | 0.071 | 0.0631 | 0.0536 | 0.0486 | 0.0544 | 0.0589 | 0.0516 | 0.0571 | 0.0531 | 0.0506 | 0.0518 |  | 0.0494 |  | 
F49K | 0.0582 | 0.0678 | 0.0603 | 0.0596 |  | 0.0532 | 0.088 | 0.0558 | 0.0763 | 0.0454 |  | 0.0592 | 0.0555 | 0.05 | 0.0643 | 0.0651 | 0.0599 | 0.0523 |  | 0.0452
F49P | 0.0627 | 0.0743 |  | 0.0596 | 0.0576 | 0.0563 | 0.0503 | 0.0584 | 0.0591 | 0.0622 |  | 0.058 | 0.0584 | 0.0441 | 0.0378 | 0.0514 | 0.0542 | 0.0662 |  | 0.0628
F49R | 0.0374 | 0.0567 | 0.0708 | 0.0599 | 0.0881 | 0.0581 | 0.0546 | 0.0477 | 0.0606 | 0.038 |  | 0.0556 | 0.0558 | 0.0454 |  | 0.0588 |  |  |  | 
F49V | 0.0705 | 0.0719 |  |  | 0.0593 |  | 0.0552 | 0.0571 |  | 0.0637 |  | 0.0541 | 0.0632 |  | 0.0639 |  | 0.0609 | 0.0686 |  | 
R51A | 0.106 | 0.106 |  | 0.0908 |  |  | 0.0742 | 0.0589 | 0.1 |  |  |  | 0.103 |  |  |  | 0.0762 |  |  | 0.0647
G54H | 0.0727 | 0.069 | 0.0616 | 0.0654 | 0.06 | 0.0614 |  | 0.0588 | 0.0603 | 0.0626 |  | 0.0568 | 0.0698 | 0.0687 | 0.0431 | 0.0534 | 0.0847 | 0.0683 |  | 
G54L | 0.0688 | 0.0987 | 0.0519 |  |  | 0.058 | 0.0454 | 0.0617 | 0.0728 | 0.065 | 0.0628 | 0.0517 | 0.0672 | 0.0201 | 0.0615 | 0.0645 | 0.0372 |  |  | 0.0249
G54R | 0.0516 | 0.0642 |  | 0.0771 | 0.0559 | 0.0661 | 0.0572 | 0.0589 | 0.0553 | 0.0571 |  | 0.0524 | 0.0663 | 0.064 | 0.0616 | 0.0546 | 0.0634 | 0.0523 |  | 0.0689
T55G | 0.0815 |  |  |  |  | 0.0558 | 0.0814 | 0.0488 | 0.0748 | 0.0603 |  | 0.0605 | 0.0912 | 0.0469 | 0.0547 | 0.0528 | 0.0655 | 0.062 |  | 0.067
L56D | 0.046 | 0.0458 | 0.0469 | 0.0485 | 0.0346 | 0.0527 | 0.0472 | 0.0369 | 0.0459 | 0.0442 | 0.0369 | 0.0446 | 0.0433 | 0.052 | 0.0454 | 0.0421 | 0.0459 | 0.0506 |  | 0.026
